These results are taken from the RNAGym collection of RNA variant scans (doi:10.7554/elife.90254).

B1: OR4K15 (parent)
chain: GUUAACGGUCAUAGGCCAUGGAAACUAGGAGCACCAUUUCGCUGCCAGUGAAGAAAUGAACAAAGAAAAUCUGGGCCAGGCAGGCAUCAAAAGAAAUAGUCUUGCGCUCAACCAGAAAGUCUGUAAUCAUUUUAAGGGUA

Read counts are not given, so values of variants with three or more changes are uncertain.

The data set covers variants of B1. Briefly: self-cleavage, relative activity (ratio to wild type); higher = more cleavage; in vitro, sequencing; the parent is a self-cleaving ribozyme.
GUUAACGGUCAUAGGCCAUGGAAGCUAGGAGCAUCAUUUCGCUGCCAGUGAAGAAAUGAACAAAGAAAAUCUGGGCCAGGCAGGCAUCAAAAGAAAUAGUCUUGCGCUCAACCAGAAUGUCUGUAAUCAUUUUAAGGGUA [A24G C34U A118U]: the self-cleavage worked out at 0.98.

Take GUUAACGGUCAUAGGCCAUGGAAGCUAGGAGCAUCAUUUCGCUGCCAGUGAAGAAAUGAACGAAGAAAAUCUGGGCCAGGCAGGCAUCAAAAGAAACAGUCUUGCGCUCAACCAGAAAGUCUGUAAUCAUUUUAAGGGUA [A24G C34U A62G U97C]: the self-cleavage is 0.53.

As for GUUAACGGUCAUAGGCCAUGGAAGCUAGGAGCACCAUUUUGCUGCCAGUGAAGAAAUGAACAAAGAAGAUCUGGGCCAGGCAGGCAUCAAAAGAAAUAGUCUUGCGCUCAACCAGAAAGUCUGUAAUCAUUUUAAGGGUA [A24G C40U A68G], the self-cleavage was found to be 1.35.

In the case of GUUAACGGUCAUAGGCCAUGGAAGCUAGGAGCACCAUUUCGCUGCCAGUGAAGAAAUGAACAAAGAAAAUCUGGGCCAGGCAGGCAUCAAAAGGAAUAGUCUUGCGCUCAACCAGGAAGUCUGUAAUCAUUUUAAGGGUA [A24G A94G A116G], the self-cleavage amounted to 1.69.

For the variant GUUAACGGUCAUAGGCCAUGGAAGCUAGGAGCACCAUUUCGCUGCCAGUGAAGAAAUGAACAAGGAAAACCUGGGCCAGGCAGGCAUCAAAAGAAAUAGUCUUGCGCUCUACCAGAAAGUCUGUAAUCAUUUUAAGGGUA [A24G A64G U70C A110U], the self-cleavage came to 0.39.

Take GUUAACGGUCAUAGGCCAUGGAAGCUAGGAGCACCAUUUCGCUGCCAGUGAAGAAAUGAACAAAGAGAAUCUGGGCCAGGCAGGCAUCAAAAGAAAUAGUCUUGCGCCCAACCAGAAAGUCUGUAAUCAUUUUAAGGGUA [A24G A67G U108C]: the self-cleavage was 0.04.

GUUAACGGUCAUAGGCCAUGGAAGCUAGGAGCACCAUUUCGCUGCCAGUGAAGAAAUGAACAAAGAAAAUCUGGGCCAGGCAGGCAUCAAGAGAAAUAGUCUUGCGCUCAACCAGAAAGUCAGUAAUCAUUUUAAGGGUA [A24G A91G U122A]: the self-cleavage was 1.06.

On to GUUAACGGUCAUAGGCCAUGGAAGCUAGGAGCACCAUUUCGCUGCCAGUGAAGAAAUGAACAAAGAAAGUCUGGGCCAGGCAGGCAUCAAAGGAAAUAGUCUCGCGCUCAACCAGAAAGUCUGUAAUCAUUCUAAGGGUA [A24G A69G A92G U103C U132C], for which the self-cleavage turned out to be 0.6.

With GUUAACGGUCAUAGGCCAUGGAAGCUAGGAGCACCAUUUCGCUGCCAGUGAAGAAAUGAACAAAGAAAAUCUGGGCCAGGUAGGCAUCAAAAGAAAUAGUCUGGCGCUCAACCAGAAAGUCUGUAAUCAUUUUAAGGGUA [A24G C81U U103G], the self-cleavage came out at 0.

For the variant GUUAACGGUCAUAGGCCAUGGAAGCUAGGAGCACCAUUUCGCUGACAGUGAAGAAGUGAACAAAGAAAAUCUGGGCCAGGCAGGCAUCAAAAGAAAUAGUCUUGCGCUCAACCAGAAAGUCUGUGAUCAUCUUAAGGGUA [A24G C45A A56G A125G U131C], the self-cleavage amounted to 0.24.

Consider GUUAACGGUCAUAGGCCAUGGAAGCUAGGAGCACCAUUUCGCUGCCAGUGAAGAAAUGAACAAAGAAAAUCUGGGCCAGGCAGGCAUCAAGAGAAAUAGUCUUGCGCUCAACCGGAAAGUCUGUAAUCAUUUUAAGGGUA [A24G A91G A114G], for which the self-cleavage turned out to be 0.29.

For GUUAACGGUCAUAGGCCAUGGAAGCUAGGAGCACCAUUUCGCUGCCAGUGAAGAAAUGAACAAAGAAAAUCUGGGCCAGGCAGGCUUCAAAGGAAAUAGUCUUGCGCUCAACCAGAAAGUCUGUAAUCAUUUUAAGGGUA [A24G A86U A92G], the self-cleavage came to 1.62.

For the variant GUUAACGGUCAUAGGCCAUGGAAGCUAGGAGCACCAUUUCGCUGCCAGUGAAGAAAUGAACAAAGAAAAUCUGGGCCAGGCAGGCAUCAAGAGAAAUAGUCUUGCGCUCGACCAGAAAGUCUGUAAUCAUUUUAAGGGUA [A24G A91G A110G], the self-cleavage was 0.15.

With GUUAACGGUCAUAGGCCAUGGAAGCUAGGAGCACCAUUUCGCUGCUAGUGAAGAAAUGAACAAAGAAAAUCUGGGCCAGGCAGGCAUCAAAAGAAAUAGUCUUGCGCUCAACCAGAAAGUCUGUAAUCGUUUUAAGGGUA [A24G C46U A129G], the self-cleavage came to 1.89.

As to GUUAACGGUCAUAGGCCAUGGAAGCUAGGAGCACCAUUUCGCUGCCAGUGAAGAAAUGAACAAAGAAAAUCUGGGCCAGGCAGGCAUCAAAAGAGAUAGUCCUGCGCUCAGCCAGAAAGUCUGUAAUCAUUUUAAGGGUA [A24G A95G U102C A111G], the self-cleavage was determined as 0.05.

As for GUUAACGGUCAUAGGCCAUGGAAGCUAGGAGCACCAUUUCGCUGCCAGUGAAGAAAUGAACAAAGAAGAUCAGGGCCAGGCAGGCAUCAAAAGAAAUAGUCUUGCGCUCAACCAGAAAGUCUGUAAUCAUUUUAAGGGUA [A24G A68G U72A], the self-cleavage is 0.26.

Turning to GUUAACGGUCAUAGGCCAUGGAAGCUAGGAGCACCAUUUCGCUGCCAGUGAAGAAAUGAACAAAGAGAAUCUGGGCCAGGCAGGCAUCAAAAGAAAUAGUCUCGCGCUCAACCAGAAAGUCUGUAAUCAUUUUAAGGGUA [A24G A67G U103C], the self-cleavage was 0.54.

For GUUAACGGUCAUAGGCCAUGGAAGCUAGGAGCACCAUUUCGCUGCCAGUGAAGAAAUGAACAAAGAAAAUCUGGGCCAGGCAGGCAUCAAAAGAACUAGUCUUGCGCUCAACCAGAAAGUCUGUAAUCAUUUUAGGGGUA [A24G A96C A135G], the self-cleavage came to 0.95.

Turning to GUUAACGGUCAUAGGCCAUGGAAGCUAGGAGCACCAUUUCGCUGCCAGUGAAGAAAUGAACAAAGAAAAUCUGGGCCAGGCAGGCAUCAAACGAAAUAGUCUUGCGCUCAACCGGAAAGUCUGUAACCAUUUUAAGGGUA [A24G A92C A114G U127C], the self-cleavage came out at 0.04.

As for GUUAACGGUCAUAGGCCAUGGAAGCUAGGAGCACCAUUUCGCUGCCAGUGAAGAAAUGAACAAAGAGAAUCUGGGCCAGGCAGGCAUCAAAAGAAAUAGCCUUGCGCUCAACCAGAAAGUCUGUAAUCAUUUUAAGGGUA [A24G A67G U100C], the self-cleavage came out at 1.94.

As to GUUAACGGUCAUAGGCCAUGGAAGCUAGGAGCACCAUUUCGCUGCCAGUGAAGAAAUGAACAAAGAAAAUCUGGGCCUGGCAGGCAUCAAAAGAAAUAGUCUUGCGCUCAACCAGAAAGUCUGUAAUCAUUCUAAGGGUA [A24G A78U U132C], the self-cleavage is 0.2.
